For 22 molecules, binding signal results are on record in publication PMC12136788.

The chains are these.
B1: chr22:37084134:37084404:-|CDS|ENSG00000187045|control|control|control (ssRNA)
RNA: GGGAGUUCUACAGUCCGACGAUCCUUCCUCUCCUCCCUCUGGCUUCCUUUCCUCCCUCCCCCUCCCUCUCUUCCCUCCUCAAUAGUGACCCCCUCAUUGGAAGCCCAAGUCCCCAAUCUCAGAGGGGCAGCAAGGGGAGCGAGCAACAGAGGAUUGAGCAUCA
B2: chr11:10770493:10770605:+|CDS|ENSG00000198730|unk|total|mutant (ssRNA)
RNA: GGGAGUUCUACAGUCCGACGAUCACAUGUGGCACCCAGUGAUACAGUUCUUAUGUUUAAUGUGGCCUUGGUCCUGCAAAGAUCCGCUACCUCUGUCCUGAAAGAUGAAAAAAGUAAUCUGAAGGAAGUACUUAAUGCUGUGAACAACAGAGGAUUGAGCAUCA
B3: chr6:41683977:41685078:-|three_prime_utr|ENSG00000112561|control|control|control (ssRNA)
RNA: GGGAGUUCUACAGUCCGACGAUCUCCCCGUCCGGCAUGAACAUGGCUGAGCUGGCCCAGCAGGUGGUGAAGCAGGAGCUGCCUAGCGAAGAGGGCCCAGGGGAGGCCCUGAUGCUGGGGGCUGAGGUCCCUGACCCUGAGCCACAACAGAGGAUUGAGCAUCA
B4: chr15:48878618:48878734:+|CDS|ENSG00000255302|unk|FALSE|bound_elsewhere (ssRNA)
RNA: GGGAGUUCUACAGUCCGACGAUCAGAACCAGCCCUGGAUGGCGGGUUUCAGAUGCAUUAUGAGAAGACCCCGUUUGAUCAGUUAGCUUUUAUCGAAGAGCUUUUUUCACUGAUGGUUGUCAAUCGUCUGACCGAAGAACUCGGCAACAGAGGAUUGAGCAUCA
B5: ENSG00000070961:be:win_5901|3pUTR|ENSG00000070961|bound_else_gene|NA|bound_elsewhere_windowed (ssRNA)
RNA: GGGAGUUCUACAGUCCGACGAUCGUAUUGAGCUUUUACAGUAUUCAUUUUUCAACUCAAGGCAAUGGCUUUCUACACCAACUCUAAUCCAUAAACGGGUCUUAUGACAUCUAUGAAGUAGUAGCAAGACAUGCUUAGUGUGUACAACAGAGGAUUGAGCAUCA
B6: chr2:85351679:85351862:-|CDS|ENSG00000042445|control|control|control (ssRNA)
RNA: GGGAGUUCUACAGUCCGACGAUCGAAGCUGGAUGUGGUGGUAAUUGGCAGUGGCUUUGGGGGCCUGGCUGCAGCUGCAAUUCUAGCUAAAGCUGGCAAGCGAGUCCUGGUGCUGGAACAACAUACCAAGGCAGGGGGCUGCUGCAACAGAGGAUUGAGCAUCA
B7: chr1:156672197:156672316:-|CDS|ENSG00000132688|unk|FALSE|bound_elsewhere (ssRNA)
RNA: GGGAGUUCUACAGUCCGACGAUCGACAUUGCAAUCCCUGCAAAAGGAGAAUCAAGAACUAAUGAAAUCUCUUGAAGGUAAUCUAGAGACAUUUUUAUUUCCAGGAACGGAAAAUCAAGAAUUAGUAAGUUCUCUGCAAGAGAACAACAGAGGAUUGAGCAUCA
B8: chr9:99150529:99150630:+|3pUTR|ENSG00000106799|msi1|FALSE|unique (ssRNA)
RNA: GGGAGUUCUACAGUCCGACGAUCCAUUUGUUAUGUAUGUAGGAGUAAACGUUCGGUGGAUCCUCUGUCUUUGUAACUGAGGUUAGAGCUAGUGUGGUUUUGAGGUCUCACUACACUUUGAGGAAGGCAGCUUUUAAUUCAGUGCAACAGAGGAUUGAGCAUCA
B9: chr12:120700859:120700960:+|3pUTR|ENSG00000110917|msi1|total|mutant (ssRNA)
RNA: GGGAGUUCUACAGUCCGACGAUCUCUUUGCAUCUGUGUGGCUUGCUUCCAGUCUGGCCUGUCCUUUCCAGCUGCCUUUUGUCCCGCCUGCUAUGGGGGGCCAGAUUAUCUUGAUAAGAGCAGGUGAUUUGGGGACCCGCUGGGCAACAGAGGAUUGAGCAUCA
B10: chr19:34469546:34469571:+|3pUTR|ENSG00000126261|msi1_unk|total|mutant (ssRNA)
RNA: GGGAGUUCUACAGUCCGACGAUCGUUGCCUUUUUAAUGUAAAUACCCGCCGGUAUCAUUAACCGUUUCAAAAUAUUGUGGUUCCGUAAAGUUGAUACCUGGUUAUAAAUAUUAUGCCUUUAUUUUUGGCCCGAAGAAGAAUUACAACAGAGGAUUGAGCAUCA
B11: chr16:85089731:85089832:+|3pUTR|ENSG00000135709|msi1|total|mutant (ssRNA)
RNA: GGGAGUUCUACAGUCCGACGAUCUUGGAAGGUUUCCCUCCGGGGAAUGCCUCCCUGGAAUGUUCCAGAGACGGAACAUUCUCCCGAGACAACAGUCUGUGCUGCAGAUUGGUUGGAUCACAGAAUGUGUGUCUGGGGCAUUAUCAACAGAGGAUUGAGCAUCA
B12: chr19:15878022:15878898:-|three_prime_utr|ENSG00000186115|control|control|control (ssRNA)
RNA: GGGAGUUCUACAGUCCGACGAUCUCUGCAGAGACCCACUCUGACCCCACUAAAAUGACCCCUGAUUCAUCAAAAGUGAAGCCUAGAAUUACCCUAAGACCCUGUUCCACAGUCCUGUAUUCCAUCCUAGAUAUCUACUCAAAACAACAGAGGAUUGAGCAUCA
B13: chr7:123692404:123692516:-|CDS|ENSG00000106299|unk|FALSE|unique (ssRNA)
RNA: GGGAGUUCUACAGUCCGACGAUCCCUGCCUUCUGAUGGGGACCAUCAGGUUCCAACUACUGCAGGAAACAAAGCAGCUCUUUUAGAUCAAAUUAGAGAGGGUGCUCAGCUAAAAAAAGUGGAGCAGAACAGUCGGCCAGUGUCCAACAGAGGAUUGAGCAUCA
B14: chr14:77132432:77132533:-|3pUTR|ENSG00000177108|unk|total|mutant (ssRNA)
RNA: GGGAGUUCUACAGUCCGACGAUCUGUGAUUGCUGGACCCAGAGGCAAGAUCUGCAGAGAUGCCUGUGAGAUAUUUGCUUUCCCCGAGGGGAGUGUGGGCAUGGGAGGGGUCUGAAAAUCAGGACCCAACCCAGCCACUGAAGACAACAGAGGAUUGAGCAUCA
B15: chr17:42842016:42842117:+|3pUTR|ENSG00000131467|msi1|total|mutant (ssRNA)
RNA: GGGAGUUCUACAGUCCGACGAUCUUACUGUUUCUUUCCUCUGUGGGGCAUUGGAUCCUCCCACAGUUGCCCUGGUGAUGACUCCGGGCUUCCCAUCUGUGUACAUCCCACUUUGAAUCUUGAUCGUGACAAGAAAUACCUCCGCAACAGAGGAUUGAGCAUCA
B16: chr22:38483724:38483825:-|3pUTR|ENSG00000100201|msi1|total|mutant (ssRNA)
RNA: GGGAGUUCUACAGUCCGACGAUCACUUAUAAUUCAGGUUCUGCUGUUGGCUUCAGAACAUGAGCAGAAGAAUCGUUUUAUGCCCGUUAUUGCAUUCAUGGUUGAAACUCAACUCCGGGAAAGGGUUCCAAUGUAUUAAGCAAUCAACAGAGGAUUGAGCAUCA
B17: chr12:21491601:21491717:-|CDS|ENSG00000004700|unk|total|mutant (ssRNA)
RNA: GGGAGUUCUACAGUCCGACGAUCGCUGCCUCCCACCGCUCUAACUGAGGAACUGGAUUCUAUAACCAGUGAGCUACAUGCAGCCGAAAUUCAAAUUCAAGAACUUACGGAAAGGCAACAAGAGCUUAUUCAGAAAAAAAAAGUCAACAGAGGAUUGAGCAUCA
B18: chr9:128061232:128063427:-|three_prime_utr|ENSG00000171169|control|control|control (ssRNA)
RNA: GGGAGUUCUACAGUCCGACGAUCCCAUGAUGGGAUGAAAACUCCAUGGACUUGUAAGUGGGUCCUGUGAUUGGCCUUGGCCUUAGACCGGCCACGUGCACAGCUCCCUCUUUAAUAAACGCUUAGGGGUUGCACUGUUUUUGACAACAGAGGAUUGAGCAUCA
B19: chr14:73931500:73934255:-|three_prime_utr|ENSG00000156050|control|control|control (ssRNA)
RNA: GGGAGUUCUACAGUCCGACGAUCAGCUAACUUGGGUUUGAGUCAAGGCAGGGAAAACUUGGGUUUUGAGUCAUGGCUACUGUUAGAGGAUGGACAAAUGAAGAGUAGCAGAUUAACAGGCCAGGCGCAGUGGCUCACGCCUGUCAACAGAGGAUUGAGCAUCA
B20: chr3:98797553:98797658:-|3pUTR|ENSG00000057019|msi1|total|mutant (ssRNA)
RNA: GGGAGUUCUACAGUCCGACGAUCAUUUCAUUCAUUGAAGAAUCAAUACAUAUUUUGUUUCAAAAUGUUUGAAACAAAAGACACCGAUGGCCGACUUUUAUUAAAACAUAUAUGGAUGUGGAAAGCACAUAUAUUAAUGCAGUCCAACAGAGGAUUGAGCAUCA
B21: chr8:37861146:37861251:-|3pUTR|ENSG00000156675|unk|total|mutant (ssRNA)
RNA: GGGAGUUCUACAGUCCGACGAUCCUGUGCAGAGCAAGAAGAUGAUACUUAUUUUUGAAUUUGUAUUUUUAAAACCCGAUUUACCGACUUUUUUUUUUUUUAACCCGGGCACUUGCUUCCUUCUCCGCUAAAAGCACCAGCUGACAACAGAGGAUUGAGCAUCA
B22: ENSG00000124766:be:win_2601|3pUTR|ENSG00000124766|bound_else_gene|NA|bound_elsewhere_windowed (ssRNA)
RNA: GGGAGUUCUACAGUCCGACGAUCAGGAUAAUAUAAAAAGCAGAUAGAUGGCGCUAUGUUUGAUUCCUACAACGAAAUUAUCACCAGCUUUUUUUCAUUCUUAACUCUUUAAAGGAUUCAAACGCAACUCAAAUCUGUGCUGGACAACAGAGGAUUGAGCAUCA

The list shows a part of the results.

The target of this assay is MSI1 full-length (mouse, UniProt Q61474 1-362). The assay is described as follows: nsRBNS (natural sequence RNA bind-n-seq); RBNS binding buffer (assumed for nsRBNS): 25 mM Tris pH 7.5, 150 mM KCl, 3 mM MgCl2, 0.01% Triton X-100, 500 ug/ml BSA, 20 U/ml SUPERase-In, 4 C; UNK is unkempt and MSI1 is Musashi-1; names of the RNAs are library labels; protein concentration not given here; high values mean tight binding.
Sequence of UniProt Q61474 (Q61474 whole entry): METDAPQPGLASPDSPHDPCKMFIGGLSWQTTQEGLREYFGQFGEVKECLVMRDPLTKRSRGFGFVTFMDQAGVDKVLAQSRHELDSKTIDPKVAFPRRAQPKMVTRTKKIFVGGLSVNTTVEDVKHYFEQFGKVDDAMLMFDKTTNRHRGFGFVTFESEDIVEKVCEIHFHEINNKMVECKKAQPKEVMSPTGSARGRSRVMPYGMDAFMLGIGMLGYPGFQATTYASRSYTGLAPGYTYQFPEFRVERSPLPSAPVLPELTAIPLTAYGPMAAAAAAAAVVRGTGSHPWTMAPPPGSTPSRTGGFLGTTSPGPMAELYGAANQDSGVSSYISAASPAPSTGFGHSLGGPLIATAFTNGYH
In turn, B1 returned a binding signal of 1.16 enrichment R. With B2 the figure was 0.663 enrichment R. With B3 the figure was 0.352 enrichment R. For B4 the value was 0.625 enrichment R; for B5, 2.99 enrichment R. As to B6, the binding signal was determined as 0.486 enrichment R.

Consider B7, for which the binding signal is 0.503 enrichment R. For B8 the value was 3.26 enrichment R; for B9, 0.392 enrichment R; for B10, 1.89 enrichment R. Molecule B11 had a binding signal of 0.228 enrichment R. With B12 the figure was 0.915 enrichment R; with B13, 0.703 enrichment R. With B14 the figure was 0.315 enrichment R; with B15, 0.478 enrichment R; with B16, 0.185 enrichment R. With B17 the figure was 0.352 enrichment R; with B18, 0.41 enrichment R; with B19, 0.698 enrichment R.

Molecule B20 had a binding signal of 0.366 enrichment R. For B21 the value was 0.679 enrichment R; for B22, 0.725 enrichment R.
